Assay results taken from PubChem BioAssay AID504466 (National Center for Advancing Translational Sciences (NCATS), 2011).
Screen size: about 330,000 compounds; about 4,200 (1.3%) were called active. Inconclusive means that the source gave no clear call. Such entries were picked first, then a sample of the others. The call rests on the fitted dose curve; in most records, active means well fitted activation curve with a large enough effect; inconclusive means small, poorly fitted or top-dose-only effect; inactive means no such curve, though single readings can be large or run the other way. Potencies beside an inconclusive call are fits to weak or partial responses and may not hold up.

experiment: qHTS screen for small molecules that induce genotoxicity in human embryonic kidney (HEK293T) cells expressing luciferase-tagged ELG1; details: HEK293T ELG1-luciferase reporter, luminescence, 16 h; series mostly up to 46 µM; further: nearly all actives have a fitted effect of over 60% in size
In short: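 Genotoxic stress is detected as increased luminescence from luciferase-tagged ELG1 in HEK293T cells, measured with ONE-Glo after a 16 hr treatment at 37 °C.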
Potency means the concentration at half of the fitted maximal effect; tags describe the fitted curve by direction and shape.

Compound	Potency
Cc1ccc(/C=N/NC(=O)c2cc(-c3ccncc3)nc3ccccc23)o1	inconclusive: 14.6 µM [activator, partial curve, poor fit]
O=C(COn1nnc2ccccc21)NCC1CCCCC1	active: 12.6 µM
O=C1CCCC/C1=C\Nc1ccc(S(=O)(=O)Nc2cnc3ccccc3n2)cc1	inactive
CN(C)C(=O)C1Cc2ccccc2CN1S(=O)(=O)c1ccc(F)cc1 (configuration not stated)	inactive
c1ccc2c(c1)nc(Nc1ccc3c(c1)OCO3)c1nnnn12	inconclusive: 10 µM [activator, partial curve]
O=[N+]([O-])CC(=Nc1ccc(Cl)cc1)N/N=C\c1oc(O)c2ccccc12	inactive
COc1ccc(OCc2cc(C(=O)N(C)Cc3cc(C)no3)no2)c(Cl)c1	inconclusive: 3.26 µM [activator, partial curve, poor fit]
COc1ccc(-c2cc(C(=O)N3CCCC3)no2)cc1OC	inconclusive: 4.61 µM [activator, single point]
Cc1cc(C(=O)N/N=C/c2cccc(Cl)c2Cl)no1	active: 20.6 µM
O=c1c2ccccc2oc2cc(NCCCn3ccnc3)ccc12	inconclusive: 2.31 µM [activator, full curve]
Cc1occc1C(=O)N1CCC2(CCCN(Cc3ccc(F)c(F)c3)C2)C1 (configuration not stated)	inactive
Cc1nn(C(=O)c2ccc3c(c2)OCO3)c(N)c1-c1ccccc1	inconclusive: 23.1 µM [activator, single point]
CCc1nnc(NC(=O)c2ccc(-c3ccc(Cl)cc3)o2)s1	inconclusive: 20.6 µM [activator, partial curve, poor fit]
CC(=Nc1ccccc1O)c1sc2ccccc2c1O	inconclusive: 9.2 µM [activator, partial curve, poor fit]
CCOC(=O)N1CCN(C(=O)c2cc(COc3cccc(C(F)(F)F)c3)on2)CC1	inconclusive: 18.3 µM [activator, single point]
COCc1nnc(NC(=O)c2ccc3c(c2)OCO3)s1	inconclusive: 5.17 µM [activator, partial curve]
COc1ccc(-c2cc(C(=O)Nc3ccc(Br)cc3)no2)cc1	inconclusive: 32.6 µM [activator, partial curve, poor fit]
O=C(Cc1cccs1)Nc1nc2c(s1)CCCC2	inconclusive: 9.2 µM [activator, partial curve]
CCc1nc(Nc2ccccc2O)c2oc3ccccc3c2n1	inactive
Cn1c(SCc2ccc(Br)cc2)nnc1-c1cccs1	inconclusive: 20.6 µM [activator, partial curve, poor fit]
COc1ccc(-c2coc3cc(O[C@@H]4O[C@H](CO)[C@@H](O)[C@H](O)[C@H]4O)c(OC)cc3c2=O)cc1	inconclusive: 14.6 µM [activator, partial curve]
O=C1c2ccccc2CN1CCSC(=S)N1CCSCC1	inactive
COc1cccc(/C=C/c2ccc3ccccc3n2)c1OC(C)=O	active: 0.206 µM
Cc1ccc2oc(Nc3nc(-c4ccccc4)cc(=O)[nH]3)nc2c1	active: 20.6 µM

Compound	Potency
CCC(=O)Oc1ccc(NC(=O)CSCc2ccccc2)cc1	inconclusive: 23.1 µM [activator, partial curve, poor fit]
COC(=O)c1ccc(/C=C2\CCn3c2nc2cc(C(=O)O)ccc2c3=O)cc1	inconclusive: 23.1 µM [activator, partial curve, poor fit]
Cn1cc(/C=C2\SC(=O)N(c3ccc(O)cc3)C2=O)c2ccccc21	inactive
CC1(C)CC(=O)C(C=Nc2ccc(O)c(N=CC3=C(O)CC(C)(C)CC3=O)c2)=C(O)C1	inactive
COc1cc(/C=C/C2=NNC(=O)CC2)cc(OC)c1OC	inconclusive: 23.1 µM [activator, partial curve, poor fit]
N#C/C(=N\Nc1ccccc1)C(=N)N1CCCCCC1	inconclusive: 9.2 µM [activator, partial curve]
Cc1c(O)ccc(C(=O)COc2ccccc2F)c1O	inconclusive: 20.6 µM [activator, single point]
CC1=C(C(=O)Nc2ccc(C)cc2C)C(c2ccc(C)o2)NC(=S)N1 (configuration not stated)	inactive
Cc1ccccc1OCc1nc2ccccc2n1C	inconclusive: 5.8 µM [activator, partial curve]
Cc1cc(Cl)n2c(nc3ccccc32)c1C#N	inconclusive: 13 µM [activator, partial curve]
Cc1ccc(C(=O)N(C)c2ccc(OCC(=O)N3c4ccc(C)cc4C4CN(C)CCC43)cc2)cc1 (configuration not stated)	inconclusive: 16.4 µM [activator, partial curve, poor fit]
O=[N+]([O-])c1ccc(/C=N/N=C/c2ccc([N+](=O)[O-])o2)o1	inconclusive: 6.51 µM [activator, partial curve, poor fit]
N=c1oc2ccccc2cc1C(=O)Nc1ccc(F)cc1	active: 5.17 µM
CCOC(=O)c1c(NC(=O)CN(CC)CC)sc2c1CCC2	inactive
Cn1nnc2cc(C(=O)Nc3ccccc3F)ccc21	inconclusive: 5.01 µM [activator, partial curve, poor fit]
Fc1ccccc1COc1cccc(/C=N/n2cnnc2)c1	inactive
COc1cc(OC)c2c(-c3cccc(-c4ccc(CO)cc4)c3)cc(=O)oc2c1	inconclusive: 2.31 µM [activator, full curve]
Cc1cccc(Nc2nnc(SCC(=O)Nc3cccnc3Cl)s2)c1	inactive
O=C(Nc1nc(-c2ccccn2)cs1)c1cc(Cl)ccc1[N+](=O)[O-]	inactive
CCOc1ccccc1C(=O)Nc1nnc(C(C)C)s1	inconclusive: 16.4 µM [activator, partial curve, poor fit]
Cc1csc(NC(=O)c2cccs2)n1	inconclusive: 18.4 µM [activator, partial curve, poor fit]
CCOC(=O)N1CCN(c2ccc(S(=O)(=O)N3CCOCC3)cn2)CC1	inactive
COc1ccc2c(c1)c(C(=O)N/N=C/c1cn(C)c3ccccc13)c(C)n2C	inactive
